Experiments:
[1] = target: T1, human CD137 expressed on the cell surface of HEK293T cells (human, UniProt Q07011 24-255); test: immunofluorescence imaging binding assay on human CD137-expressing HEK293T cells; one concentration, not given
T1 construct: Stably or transiently transfected HEK293T cells; also on HEK293T and Jurkat T NFκB reporter cells; also called human CD137 (WT); 4-1BB

[2] = target: T2, human CD137 (Sino Biological, cat #10041-H08H) (human, UniProt Q07011 24-186); test: SPR (Biacore3000), antibody captured by anti-human IgG on CM5, CD137 as analyte, 1:1 binding with mass transfer
T2 construct: Bought protein used as the analyte in SPR; also called CD137 antigen in Biacore

[3] = target: T3, human recombinant PD-L1 protein (Acro Biosystems, cat #: PD1-H5229) (human, UniProt Q9NZQ7 partial chain); test: SPR (Biacore3000), antibody captured by anti-human IgG on CM5, PD-L1 as analyte, 1:1 binding with mass transfer
T3 construct: Bought protein; also called human PD-L1; recombinant human PD-L1
T3 sequence (Q9NZQ7 19-238 limits assumed): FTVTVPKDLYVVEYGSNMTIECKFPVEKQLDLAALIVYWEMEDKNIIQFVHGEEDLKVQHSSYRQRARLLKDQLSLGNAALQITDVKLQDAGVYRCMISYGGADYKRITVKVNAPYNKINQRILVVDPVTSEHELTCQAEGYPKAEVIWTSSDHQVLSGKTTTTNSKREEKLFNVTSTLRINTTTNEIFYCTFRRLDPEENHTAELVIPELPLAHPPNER

Binder | binding result [1] | Kd [2] [nM] | koff [2] [s⁻¹] | kon [2] [M⁻¹ s⁻¹] | Kd [3] [nM] | koff [3] [s⁻¹] | kon [3] [M⁻¹ s⁻¹]
1923Ab7 (other, also called PD-L1/TGFβ/CD137 trispecific 1923Ab7) heavy: QVQLVQSGAEVKKPGASVKVSCKASGYTFTSYDINWVRQATGQGLEWMGWMNPNSGITGYAQRFQGRVTMTRDTSISTAYMELSSLRSEDTAVYYCARHRWGKGYLDLWGRGTLVTVSSASTKGPSVFPLAPSSKSTSGGTAALGCLVKDYFPEPVTVSWNSGALTSGVHTFPAVLQSSGLYSLSSVVTVPSSSLGTQTYICNVNHKPSNTKVDKKV[gap - human IgG1 Fc with changes]GGGSGGGGSGGGGSQVQLVESGGGVVQPGRSLRLSCAASGFTFSNYGMHWVRQAPGKGLEWVAIIWYDGINKYYADSVKGRFTISRDNSKNTLYLQMNSLKAEDTAVYYCARDQDYDILTGYYKEDYFDFWGQGTLVTVSSGGGGSGGGGSGGGGSSYELTQPPSVSVSPGQTARITCSGDALPKKYAYWYQQKSGQAPVLVIYEDSKRPSGIPERFSGSSSGTMATLTISGAQVEDEADYYCYSTDSSGNRVFGGGTKLTVL light: EIVMAQSPATLSLSPGERATLSCRASQSVSSSYLSWFQQKPGQAPRLLIYGASTRATGIPARFGGSGSGTDFTLTISSLQPEDFAVYYCQQDYNLPYTFGQGTKLEIKRTVAAPSVFIFPPSDEQLKSGTASVVCLLNNFYPREAKVQWKVDNALQSGNSQESVTEQDSKDSTYSLSSTLTLSKADYEKHKVYACEVTHQGLSSPVTKSFNRGECGGGGSGGGGSGGGGSTIPPHVQKSVNNDMIVTDNNGAVKFPQLCKFCDVRFSTCDNQKSCMSNCSITSICEKPQEVCVAVWRKNDENITLETVCHDPKLPYHDFILEDAASPKCIMKEKKKPGETFFMCSCSSDECNDNIIFSEEYNTSNPD | binds | – | – | – | – | – | –
1923Ab8 (bispecific antibody, human IgG1, kappa, 1923Ab3 IgG1 L234A L235A scaffold with 1923Ab4 scFv (VH-VL) at the C-terminus of each heavy chain; also called PD-L1/CD137 bispecific 1923Ab8) heavy: QVQLVQSGAEVKKPGASVKVSCKASGYTFTSYDINWVRQATGQGLEWMGWMNPNSGITGYAQRFQGRVTMTRDTSISTAYMELSSLRSEDTAVYYCARHRWGKGYLDLWGRGTLVTVSSASTKGPSVFPLAPSSKSTSGGTAALGCLVKDYFPEPVTVSWNSGALTSGVHTFPAVLQSSGLYSLSSVVTVPSSSLGTQTYICNVNHKPSNTKVDKKV[gap - human IgG1 Fc with changes]GGGSGGGGSGGGGSQVQLVESGGGVVQPGRSLRLSCAASGFTFSNYGMHWVRQAPGKGLEWVAIIWYDGINKYYADSVKGRFTISRDNSKNTLYLQMNSLKAEDTAVYYCARDQDYDILTGYYKEDYFDFWGQGTLVTVSSGGGGSGGGGSGGGGSSYELTQPPSVSVSPGQTARITCSGDALPKKYAYWYQQKSGQAPVLVIYEDSKRPSGIPERFSGSSSGTMATLTISGAQVEDEADYYCYSTDSSGNRVFGGGTKLTVL light: EIVMAQSPATLSLSPGERATLSCRASQSVSSSYLSWFQQKPGQAPRLLIYGASTRATGIPARFGGSGSGTDFTLTISSLQPEDFAVYYCQQDYNLPYTFGQGTKLEIKRTVAAPSVFIFPPSDEQLKSGTASVVCLLNNFYPREAKVQWKVDNALQSGNSQESVTEQDSKDSTYSLSSTLTLSKADYEKHKVYACEVTHQGLSSPVTKSFNRGEC | binds | – | – | – | – | – | –
1923Ab9 (other, monovalent for CD137; also called PD-L1/TGFβ/CD137 trispecific 1923Ab9) heavy 1: QVQLVQSGAEVKKPGASVKVSCKASGYTFTSYDINWVRQATGQGLEWMGWMNPNSGITGYAQRFQGRVTMTRDTSISTAYMELSSLRSEDTAVYYCARHRWGKGYLDLWGRGTLVTVSSASTKGPSVFPLAPSSKSTSGGTAALGCLVKDYFPEPVTVSWNSGALTSGVHTFPAVLQSSGLYSLSSVVTVPSSSLGTQTYICNVNHKPSNTKVDKKV[gap - human IgG1 Fc with changes]GGGSGGGGSGGGGSQVQLVESGGGVVQPGRSLRLSCAASGFTFSNYGMHWVRQAPGKGLEWVAIIWYDGINKYYADSVKGRFTISRDNSKNTLYLQMNSLKAEDTAVYYCARDQDYDILTGYYKEDYFDFWGQGTLVTVSSGGGGSGGGGSGGGGSSYELTQPPSVSVSPGQTARITCSGDALPKKYAYWYQQKSGQAPVLVIYEDSKRPSGIPERFSGSSSGTMATLTISGAQVEDEADYYCYSTDSSGNRVFGGGTKLTVL heavy 2: QVQLVQSGAEVKKPGASVKVSCKASGYTFTSYDINWVRQATGQGLEWMGWMNPNSGITGYAQRFQGRVTMTRDTSISTAYMELSSLRSEDTAVYYCARHRWGKGYLDLWGRGTLVTVSSASTKGPSVFPLAPSSKSTSGGTAALGCLVKDYFPEPVTVSWNSGALTSGVHTFPAVLQSSGLYSLSSVVTVPSSSLGTQTYICNVNHKPSNTKVDKKVEPKSCDKTHTCPPCPAPEAAGGPSVFLFPPKPKDTLMISRTPEVTCVVVDVSHEDPEVKFNWYVDGVEVHNAKTKPREEQYNSTYRVVSVLTVLHQDWLNGKEYKCKVSNKALPAPIEKTISKAKGQPREPQVCTLPPSRDELTKNQVSLSCAVKGFYPSDIAVEWESNGQPENNYKTTPPVLDSDGSFFLVSKLTVDKSRWQQGNVFSCSVMHEALHNHYTQKSLSLSPGK light: EIVMAQSPATLSLSPGERATLSCRASQSVSSSYLSWFQQKPGQAPRLLIYGASTRATGIPARFGGSGSGTDFTLTISSLQPEDFAVYYCQQDYNLPYTFGQGTKLEIKRTVAAPSVFIFPPSDEQLKSGTASVVCLLNNFYPREAKVQWKVDNALQSGNSQESVTEQDSKDSTYSLSSTLTLSKADYEKHKVYACEVTHQGLSSPVTKSFNRGECGGGGSGGGGSGGGGSTIPPHVQKSVNNDMIVTDNNGAVKFPQLCKFCDVRFSTCDNQKSCMSNCSITSICEKPQEVCVAVWRKNDENITLETVCHDPKLPYHDFILEDAASPKCIMKEKKKPGETFFMCSCSSDECNDNIIFSEEYNTSNPD | binds | – | – | – | – | – | –
1923Ab17 (other, also called PD-L1/TGFβ/CD137 trispecific 1923Ab17) heavy: QVQLVQSGAEVKKPGASVKVSCKASGYTFTSYDINWVRQATGQGLEWMGWMNPNSGITGYAQRFQGRVTMTRDTSISTAYMELSSLRSEDTAVYYCARHRWGKGYLDLWGRGTLVTVSSASTKGPSVFPLAPSSKSTSGGTAALGCLVKDYFPEPVTVSWNSGALTSGVHTFPAVLQSSGLYSLSSVVTVPSSSLGTQTYICNVNHKPSNTKVDKKV[gap - human IgG1 Fc with changes]GGGSGGGGSGGGGSQVQLVESGGGVVQPGRSLRLSCAASGFTFSNYGMHWVRQAPGKCLEWVAIIWYDGINKYYADSVKGRFTISRDNSKNTLYLQMNSLKAEDTAVYYCARDQDYDILTGYYKEDYFDFWGQGTLVTVSSGGGGSGGGGSGGGGSGGGGSSYELTQPPSVSVSPGQTARITCSGDALPKKYAYWYQQKSGQAPVLVIYEDSKRPSGIPERFSGSSSGTMATLTISGAQVEDEADYYCYSTDSSGNRVFGCGTKLTVL light: EIVMAQSPATLSLSPGERATLSCRASQSVSSSYLSWFQQKPGQAPRLLIYGASTRATGIPARFGGSGSGTDFTLTISSLQPEDFAVYYCQQDYNLPYTFGQGTKLEIKRTVAAPSVFIFPPSDEQLKSGTASVVCLLNNFYPREAKVQWKVDNALQSGNSQESVTEQDSKDSTYSLSSTLTLSKADYEKHKVYACEVTHQGLSSPVTKSFNRGECGGGGSGGGGSGGGGSTIPPHVQKSVNNDMIVTDNNGAVKFPQLCKFCDVRFSTCDNQKSCMSNCSITSICEKPQEVCVAVWRKNDENITLETVCHDPKLPYHDFILEDAASPKCIMKEKKKPGETFFMCSCSSDECNDNIIFSEEYNTSNPD | – | 19.3 | 0.0483 | 2.5e+06 | 2.22 | 0.00267 | 1.2e+06
1923Ab18 (bispecific antibody, human IgG1, kappa, 1923Ab3 IgG1 L234A L235A scaffold with disulfide-stabilized 1923Ab4 scFv (VH-VL) at the C-terminus of each heavy chain; also called PD-L1/CD137 bispecific 1923Ab18) heavy: QVQLVQSGAEVKKPGASVKVSCKASGYTFTSYDINWVRQATGQGLEWMGWMNPNSGITGYAQRFQGRVTMTRDTSISTAYMELSSLRSEDTAVYYCARHRWGKGYLDLWGRGTLVTVSSASTKGPSVFPLAPSSKSTSGGTAALGCLVKDYFPEPVTVSWNSGALTSGVHTFPAVLQSSGLYSLSSVVTVPSSSLGTQTYICNVNHKPSNTKVDKKV[gap - human IgG1 Fc with changes]GGGSGGGGSGGGGSQVQLVESGGGVVQPGRSLRLSCAASGFTFSNYGMHWVRQAPGKCLEWVAIIWYDGINKYYADSVKGRFTISRDNSKNTLYLQMNSLKAEDTAVYYCARDQDYDILTGYYKEDYFDFWGQGTLVTVSSGGGGSGGGGSGGGGSGGGGSSYELTQPPSVSVSPGQTARITCSGDALPKKYAYWYQQKSGQAPVLVIYEDSKRPSGIPERFSGSSSGTMATLTISGAQVEDEADYYCYSTDSSGNRVFGCGTKLTVL light: EIVMAQSPATLSLSPGERATLSCRASQSVSSSYLSWFQQKPGQAPRLLIYGASTRATGIPARFGGSGSGTDFTLTISSLQPEDFAVYYCQQDYNLPYTFGQGTKLEIKRTVAAPSVFIFPPSDEQLKSGTASVVCLLNNFYPREAKVQWKVDNALQSGNSQESVTEQDSKDSTYSLSSTLTLSKADYEKHKVYACEVTHQGLSSPVTKSFNRGEC | – | 22.3 | 0.038 | 1.7e+06 | 3.49 | 0.0023 | 659000
